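Cultured in 96-well plates, cells were exposed to test compound for 48 hours across five concentrations. GI50 is the concentration that inhibits growth by half. TGI: concentration producing complete growth inhibition.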 Peptide text beside a SMILES is read from it. * marks the point of attachment. X33 = O=C(c1ccc(-c2ccc(Cl)cc2Cl)o1)* A value given as a limit tells only on which side of the number the result lay.

In this experiment the test system is NCI-H322M lung. In words: NCI anticancer screen, dose series, 48 h.
For `NNc1nc2ccccc2o1`, the TGI was above 100 µM.
Still for that read-out and setting: with `COc1cc(/C=C2\NC(=O)C3Cc4c(OC)c(C)c(OC)c(OC)c4C2N3C)c(OC)c(C)c1OC` (configuration not stated) the figure was above 100 µM.
The same measure, in the same setting: with `CN/N=C(\C)C(CN1CCCCC1)C(C1=C(O)c2ccccc2OC1)c1ccccc1` (configuration not stated) the figure was above 100 µM; with `O=C1/C(=C/c2ccccc2)CCc2ccc([N+](=O)[O-])cc21`, above 100 µM; with `COc1ccccc1/C=N/Nc1nnc2c3ccccc3c3ncccc3c2n1`, above 100 µM.
With `COc1cc(NS(C)(=O)=O)ccc1Cc1c2ccccc2nc2ccccc12`, the GI50 is 1.46 µM and the TGI stood at 3.87 µM.
Consider `N#Cc1ccccc1NC(=O)C(=O)C(C(=O)c1ccncc1)C1OC(=O)c2ccccc21` (configuration not stated), for which the TGI is above 100 µM.
With `CC(=O)Nc1ccc(OC(C)=O)cc1`, the GI50 was 0.229 µM and the TGI is above 100 µM.
Take `CC1(C)N=c2cc3c(cc2N1c1ccc(Cl)cc1)=Nc1ccccc1N3c1ccc(Cl)cc1`: the GI50 is 15.6 µM and the TGI is above 100 µM.
The molecule `COc1ccc(C[C@]23CCC(=O)N2CCc2cc(OC)c(O)cc23)cc1O` came in with a TGI above 100 µM.
Consider `O=C1NC(=O)C(C(c2ccc([N+](=O)[O-])cc2)C2C(=O)NC(=O)NC2=O)C(=O)N1`, for which the TGI is above 100 µM.
On the same count and under the same terms, with `C#CC(C)(C)OCCCCOc1cc(O)c2c(=O)c3ccccc3n(C)c2c1` the figure was above 100 µM.
On to `CCOC(=O)Nc1ccc2c(c1)C(=O)N(CC)c1ccccc1O2`, for which the GI50 is 0.258 µM and the TGI is above 100 µM.
Turning to `CCCCCCCC(=O)OC[C@H](C[As](=O)(O)O)OC(=O)CCCCCCC`, the TGI was 27.8 µM.
Still for that read-out and setting: with `O=C1CCCCCCCCCCC1CN1CCOCC1` (configuration not stated) the figure was above 100 µM.
On to `COc1ccc2nc3c(cc2c1)C(=O)CC(c1ccccc1)C3` (configuration not stated), for which the GI50 is 9.03 µM and the TGI is above 100 µM.
Taken in the same sequence, the figures for `COc1cc2c(c(OC)c1OC)-c1c(c3ccc([N+](=O)[O-])cc3c(=O)n1CCCBr)C2=O` were 12.5 µM and above 100 µM.
The molecule `Oc1ccc(C2Oc3cc(O)cc4c3C2c2cc(O)cc3c2C(c2cc(O)cc5c2C4C(c2ccc(O)cc2)O5)C(c2ccc(O)cc2)O3)cc1` (configuration not stated) yielded a TGI above 25 µM.
In the case of `COc1nc2ccc(CNc3ccc(C(=O)NC(CCC(=O)O)C(=O)O)cc3)cc2nc1OC` (configuration not stated), the TGI is above 100 µM.
`Cc1nc(-n2nc(-c3ccccc3)cc2-c2ccccc2)sc1C(=O)/C=C/c1ccc([N+](=O)[O-])cc1` gave a TGI above 87.7 µM.
Still for that read-out and setting: the value for `N#Cc1ccc(OCCSCCCCCCCCCCSCCOc2ccc(C#N)cc2)cc1` was above 100 µM.
Take `Cc1nc2ccccc2c(/C=C/c2ccccc2)c1C(=O)/C=C/c1ccc(C(F)(F)F)cc1`: the GI50 was 1.5 µM and the TGI turned out to be 2.86 µM.
Take `CN(C)CCN(C)C(=O)c1cccc2cccc(C(=O)O)c12`: the TGI was above 100 µM.
On to `O=[N+]([O-])c1cccc(C2=NN(c3ccccc3)C3c4ccccc4OCC23)c1` (configuration not stated), for which the TGI is above 100 µM.
Still for that read-out and setting: the value for `O=C1NC(=NCc2ccc(F)cc2)N/C1=C\c1ccccc1Cl` was 36.2 µM; that for `CSc1nc(NC2OCC(OC(C)=O)C(OC(C)=O)C2OC(C)=O)c2c(n1)OCC2=O` (configuration not stated) was above 100 µM.
Turning to `FC(F)(F)c1cc(NC(=S)N2c3ccccc3-n3cccc3C2c2cccnc2)cc(C(F)(F)F)c1` (configuration not stated), the GI50 is 20.4 µM and the TGI is 58.8 µM.
Consider `CCOC(=O)[C@@]1(C(C)=O)CC(C)=C(C)C[S@]1=O`, for which the TGI is above 100 µM.
For `COc1ccc(CNCCCN2C(=O)c3ccc4c5c(ccc(c35)C2=O)C(=O)N(CCCNCc2ccc(OC)c(OC)c2OC)C4=O)c(OC)c1OC`, the GI50 is 0.109 µM and the TGI was determined as 0.315 µM.
Molecule `COc1ccc([Se][Se]c2ccc(OC)cc2OC)c(OC)c1` returned a TGI above 100 µM.
On the same count and under the same terms, the value for `O=C(CC1(O)C(=O)Nc2ccccc21)c1ccc(Cl)cc1Cl` (configuration not stated) was above 100 µM.
The same measure, in the same setting: with `COCN1C(=N)C(C(=O)OC(C)(C)C)=C2C=C(O)C=CC21C` (configuration not stated) the figure was 28.2 µM; with `Cc1cc(=O)oc2cc3oc(N(C)c4ccccc4)nc(=O)c3cc12`, above 100 µM; with `N#Cc1sc2c(c1OC(=O)c1ccc(Cl)cc1Cl)c(=O)n(-c1ccccc1)c(=S)n2-c1ccccc1`, above 100 µM.
As to `CCN(CCO)CCCC(C)Nc1ccnc2cc(Cl)ccc12` (configuration not stated), the GI50 was above 100 µM and the TGI is above 100 µM.
As for `Cc1ccc2[nH]c(C(=O)NN3C(=O)C(C)SC34CCC(C)CC4)c(-c3ccccc3)c2c1` (configuration not stated), the GI50 is 18.5 µM and the TGI came out at 42.5 µM.
For `CCCCc1nc(C)oc1C(C)C`, the TGI is above 100 µM.
Same read-out and setting: with `O=C(O)/C=C/c1ccc(OS(=O)(=O)O)cc1` the figure was above 100 µM.
Still for that read-out and setting: with `Cc1c(C(=O)Nc2ccccc2)nnn1-c1ccnc2cc(C(F)(F)F)ccc12` the figure was above 100 µM.
The same measure, in the same setting: with `COc1ccc(-c2cc(=O)c3cc(Cl)ccc3[nH]2)cc1` the figure was above 100 µM; with `CN(/N=C/c1ccc(Cl)c(Cl)c1)C1=NCCCCN1`, 15.3 µM.
`CN(C)c1ccc(C2CC(=O)CC(c3ccc(N(C)C)cc3)C23C(=O)NC(=S)NC3=O)cc1` (configuration not stated): the TGI was above 100 µM.
Take `Cn1ccc(=NS(=O)(=O)c2ccccc2)cc1`: the TGI was above 100 µM.
On to `CCN1C(=O)N(CC)C2C1NN=c1s/c(=C\c3ccc(C(F)(F)F)cc3)c(=O)n12` (configuration not stated), for which the GI50 was 0.84 µM and the TGI is above 46.1 µM.
The like results for `CC[C@]12C=CCN3CC[C@@]4(c5ccc(OC)cc5N(C)[C@H]4[C@@](O)(C(=O)OC)[C@@H]1OC(=O)CCC(=O)O[C@H]1CC[C@H]4[C@@H]5CC[C@H]6CC(=O)CC[C@]6(C)[C@H]5CC[C@]14C)[C@@H]32` were, in that order, 3.59 µM and above 100 µM.
`Nc1ccn(CCOC(c2ccccc2)P(=O)(O)O)c(=O)n1` (configuration not stated): the TGI was above 100 µM.
Still for that read-out and setting: the value for `C[N+](C)(C)C1CC([N+](C)(C)C)C2c3ccccc3C21` (configuration not stated) was above 100 µM; that for `CNS(=O)(=O)NNS(=O)(=O)c1ccc(F)cc1` was above 100 µM; that for `Cc1oc2nc(N(C)C)nc(NN)c2c1C` was above 100 µM.
The same measure, in the same setting: with `CS(=O)(=O)NNS(=O)(=O)c1ccc(F)cc1` the figure was above 100 µM; with `CN1c2c(nc(N)[nH]c2=O)NCC1CCNc1ccc(C(=O)NC(CCC(=O)O)C(=O)O)cc1` (configuration not stated), 2930 µM; with `CC(C)(C)OC(=O)NCCC1CNc2ccccc21` (configuration not stated), above 100 µM.
On to `NNC(=O)CC(=O)Nc1ccc(S(=O)(=O)c2ccc(NC(=O)CC(=O)NN)cc2)cc1`, for which the TGI was above 100 µM.
On the same count and under the same terms, with `COC(=O)/C=C\C(C#N)(C#N)N=Cc1cccs1` the figure was 33 µM.
Regarding `COC(=O)N/N=C(\C)CC(=O)Nc1cccc([N+](=O)[O-])c1`, the TGI was above 100 µM.
Same read-out and setting: with `C/C=C\C(CC(=O)NCCC1CN(C(=O)OCc2ccccc2)c2ccccc21)CC(=O)OC` (configuration not stated) the figure was above 100 µM.
The same measure, in the same setting: with `CC(=O)OCC1=CC2OC(=O)C3=COC(OC4OC(CO)C(O)C(O)C4O)C1C32` (configuration not stated) the figure was above 100 µM.
For `O=C1/C(=C/c2ccc(F)cc2)CN(C(=O)C(Cl)Cl)C/C1=C\c1ccc(F)cc1`, the GI50 was 0.755 µM and the TGI came out at 2.02 µM.
For the molecule `Cc1cn(C2CC(N=[N+]=[N-])C(CO)O2)c(=O)n(CCCCBr)c1=O` (configuration not stated), the TGI was above 100 µM.
In the case of `C=CCc1cccc2cc(C(=O)Nc3ccc(C)cc3)c(=N)oc12`, the TGI was above 100 µM.
On to `COC(=O)C1=C(C(=O)ON)[C@@H]2C=C[C@@]1([C@@H](Cc1ccccc1)Nc1ccccc1)O2`, for which the GI50 was 15.1 µM and the TGI is 28.4 µM.
Molecule `[C-]#[N+]C(=C\c1ccc(O)cc1)/C(=C/c1ccc(O)cc1)[N+]#[C-]` gave a TGI of 13.4 µM.
As to `Fc1ccc(-c2ncn(CCCN3CCOCC3)c2-c2ccncc2)cc1`, the GI50 is above 25 µM and the TGI was above 25 µM.
Consider `Cc1ccc(/C=N/NS(=O)(=O)c2ccccc2)cc1C`, for which the TGI was above 100 µM.
The same measure, in the same setting: with `COC(=O)C(CC(C)C)NC(=O)C(Cc1ccccc1)NC(=O)C1CCCN1C(=O)C(CO)NC(=O)c1ccc(-c2ccc(Cl)cc2Cl)o1` (configuration not stated) (X33-SPFL-OMe; configuration not given here) the figure was 38.2 µM.
In the case of `COc1cc2c(/C=C3/C(=O)Nc4ccc(O)cc43)c(Cl)n(Cc3cc(OC)c(OC)c(OC)c3)c2cc1C`, the GI50 was 4.79 µM and the TGI is above 30.7 µM.
With `CC(=O)OCCCCN1C(=O)CSc2ccccc21`, the TGI is above 100 µM.
As to `O=C1c2ccccc2C(=O)c2c1oc1c2c(=O)[nH]c2ccc(Cl)cc21`, the GI50 was 0.324 µM and the TGI was 1.43 µM.
`CCCCC(=O)c1c(O)ccc2c(C)cc(=O)oc12` yielded a TGI above 100 µM.
Turning to `COc1cc(NC(C)=O)ccc1C(=O)N/N=C/c1ccco1`, the TGI is above 100 µM.
Same read-out and setting: the value for `COc1ccc(NC(=O)C(C#N)=C(SC)SC)cc1` was above 100 µM; that for `O=S1(=O)c2cc(S(=O)(=O)n3ccnc3)ccc2NC2=NCCCN21` was above 100 µM; that for `O=C1NC2(CCCC2)C2CCCCC12O` (configuration not stated) was above 100 µM.
On the same count and under the same terms, with `Nc1nc(SCCNC(=O)CCc2ccc(O)c(I)c2)nc2c1ncn2C1OC(CO)C(O)C1O` (configuration not stated) the figure was above 100 µM; with `C/C(=C\C(C[C@](C)(O)C(O)CCC#C[Si](C)(C)C)S(=O)(=O)c1ccccc1)CC/C=C/CO[Si](C)(C)C(C)(C)C` (some centres not stated), 32.8 µM.
The same measure, in the same setting: with `CCOC(=O)CNC(=O)OCc1ccccc1` the figure was above 100 µM.
For the molecule `c1ccc(SCCc2ccncc2)cc1`, the TGI was above 100 µM.
For `O=C1c2cc3c(cc2-c2c1c1ccc(F)cc1c(=O)n2C[C@H](O)[C@H](O)[C@H](O)CO)OCO3`, the GI50 was 0.258 µM and the TGI was above 100 µM.
With `COc1ccc2c(c1)C(=O)c1c-2c(N2CCN(C(=O)CCNCCNCCN)CC2)nc2ccccc12`, the GI50 was 19.1 µM and the TGI was 40.8 µM.
Turning to `COC(=O)[C@@H]1C[C@]2(Br)c3ccccc3N(S(=O)(=O)c3ccccc3)[C@@H]2N1C(=O)OC`, the TGI is above 100 µM.
In the case of `CCn1c(SCC(=O)Nc2cc(C(F)(F)F)ccc2Cl)nc2ccccc2c1=O`, the GI50 is 39.9 µM and the TGI was above 100 µM.
For the molecule `CC(C)CCCCCCCCCCCCC(=O)NCC(=O)NC1C(C)OC(Nc2ncnc3nc[nH]c23)C(O)C1O` (configuration not stated), the GI50 is 0.0112 µM.
`Cc1cc2c(=O)c(C)n[nH]c2c(C#N)c1C` returned a TGI above 100 µM.
Turning to `O=C(Nc1ccccc1Cl)c1ccc(NC2=C(Cl)C(=O)N(C3CCCCC3)C2=O)cc1`, the GI50 is 5.79 µM and the TGI was 21.2 µM.
As to `COc1ccc(N/N=C/C2=CC(C)(C)C(C#N)(C#N)C(O)=C2C#N)cc1`, the TGI was above 100 µM.

Values taken from PubChem BioAssay (NCI).
